The supplement of paper PMC12217912
Some of the results follow. Sequences were assembled here from the parent chain. Inactive controls read about 0.05.

B1: TEV protease; numbered along this chain (parent)
chain: MGESLFKGPRDYNPISSSICHLTNESDGHTTSLYGIGFGPFIITNKHLFRRNNGTLVVQSLHGVFKVKDTTTLQQHLVDGRDMIIIRMPKDFPPFPQKLKFREPQREERICLVTTNFQTKSMSSMVSDTSCTFPSGDGIFWKHWIQTKDGQCGSPLVSTRDGFIVGIHSASNFTNTNNYFTSVPKNFMELLTNQEAQQWVSGWRLNADSVLWGGHKVFMVKPEEPFQPVKEATQL

Variants of: B1
Assay: raw area under fraction-flipped curve 0-4 h after induction (AUC4h, not background-subtracted), DNA-recorder readout of cleavage of the substrate (dimensionless); higher = more cleavage of the substrate by the protease variant
Conditions: temperature: 34 °C; time window: 0-4 h after rhamnose induction
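Note: Bxb1 expression induced with 0.2% (w/v) L-rhamnose at OD600 near 0.5, cultures sampled hourly, flipped fraction per protease–substrate barcode pair counted by paired-end Illumina sequencing.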

| Variant | area with substrate ENAYFQS | area with substrate ENFYFQS | area with substrate ENKYFQS | area with substrate ENMYFQS | area with substrate ENSYFQS | area with substrate ENTYFQS | area with substrate ENCYFQS | area with substrate ENDYFQS | area with substrate ENEYFQS | area with substrate ENGYFQS | area with substrate ENIYFQS | area with substrate ENNYFQS | area with substrate ENPYFQS | area with substrate ENQYFQS | area with substrate ENRYFQS | area with substrate ENVYFQS | area with substrate ENYYFQS | area with substrate ENHYFQS | area with substrate ENWYFQS |
| --- | --- | --- | --- | --- | --- | --- | --- | --- | --- | --- | --- | --- | --- | --- | --- | --- | --- | --- | --- |
| H215C | 0.0491 | 0.0553 | 0.0804 | 0.069 | 0.0633 | 0.072 | – | – | – | – | – | – | – | – | – | – | – | – | – |
| E195K | 0.07 | 0.0607 | 0.0637 | – | 0.046 | 0.0755 | 0.0636 | 0.0693 | 0.0582 | 0.0583 | 0.0953 | 0.0638 | 0.0553 | 0.0551 | 0.0558 | 0.0675 | 0.0617 | – | – |
| V157L | 0.0564 | – | – | – | 0.07 | 0.0611 | – | 0.0563 | 0.0715 | – | 0.0954 | 0.0543 | 0.0527 | 0.0554 | 0.0868 | 0.0724 | – | 0.0636 | 0.0601 |
| V157D | 0.0524 | 0.0444 | 0.0413 | – | 0.0433 | – | 0.0501 | 0.0598 | 0.0491 | 0.0599 | 0.0402 | 0.0543 | 0.0441 | 0.0541 | 0.046 | – | – | – | 0.0405 |
| V157S | 0.0673 | 0.0593 | 0.0609 | – | 0.0614 | – | 0.0694 | 0.0579 | 0.041 | 0.0637 | 0.0825 | 0.0528 | – | 0.0724 | 0.0585 | 0.053 | 0.0617 | – | 0.0227 |
| V217C | 0.0515 | – | 0.078 | – | 0.061 | 0.0718 | 0.0628 | 0.0536 | 0.0613 | 0.0578 | 0.115 | 0.0523 | – | 0.0658 | 0.0496 | 0.11 | 0.0452 | 0.0593 | – |
| V217P | 0.0577 | – | 0.0458 | – | 0.0675 | 0.0494 | 0.0543 | 0.0717 | 0.0719 | – | 0.0492 | 0.0638 | – | 0.0583 | 0.0641 | 0.0573 | 0.0563 | 0.0687 | 0.0484 |
| F187M | 0.0655 | 0.0602 | – | – | 0.0577 | 0.0654 | – | 0.0543 | – | 0.0401 | 0.102 | 0.0676 | – | 0.0493 | 0.0534 | 0.0846 | 0.0658 | 0.0722 | – |
| T192M | 0.0706 | 0.0632 | 0.0629 | 0.0818 | 0.0571 | 0.073 | – | 0.061 | 0.0637 | 0.0551 | 0.0739 | 0.0711 | – | 0.0511 | 0.0575 | 0.0764 | 0.0651 | 0.0544 | – |
| V165T | 0.0479 | 0.0501 | 0.0548 | 0.0611 | – | 0.0367 | 0.0566 | 0.0656 | 0.0638 | 0.055 | 0.0623 | 0.0535 | 0.0699 | 0.0607 | 0.0467 | 0.0608 | – | 0.0563 | – |
| V165R | 0.0577 | 0.0481 | 0.0596 | 0.0526 | 0.0522 | 0.0463 | 0.0743 | 0.0529 | 0.0406 | – | 0.0444 | 0.0461 | – | 0.057 | 0.0372 | 0.0604 | – | 0.0565 | – |
| K185G | 0.0575 | 0.0647 | 0.039 | – | 0.0675 | – | 0.076 | 0.0549 | – | 0.0714 | 0.0906 | – | – | 0.0537 | – | – | 0.0635 | 0.0609 | 0.0456 |
| S201R | 0.0556 | 0.0667 | – | 0.0793 | 0.0698 | – | 0.0598 | 0.0646 | 0.0532 | 0.0357 | – | 0.0597 | 0.0458 | 0.0594 | – | – | 0.0745 | 0.0507 | 0.0447 |
